# Measurements: PMC5437018
# By UniProt entry, the sequences of proteins in these tests, tags left out.
# UniProt P62136: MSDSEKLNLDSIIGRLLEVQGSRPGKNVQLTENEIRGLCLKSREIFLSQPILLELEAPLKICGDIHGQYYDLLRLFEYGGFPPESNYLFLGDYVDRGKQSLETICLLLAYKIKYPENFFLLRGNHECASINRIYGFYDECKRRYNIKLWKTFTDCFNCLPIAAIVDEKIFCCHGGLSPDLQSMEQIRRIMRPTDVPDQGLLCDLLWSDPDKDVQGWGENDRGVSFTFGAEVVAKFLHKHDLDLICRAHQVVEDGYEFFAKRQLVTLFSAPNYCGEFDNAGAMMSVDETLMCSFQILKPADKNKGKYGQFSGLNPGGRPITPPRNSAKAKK
# UniProt P62137: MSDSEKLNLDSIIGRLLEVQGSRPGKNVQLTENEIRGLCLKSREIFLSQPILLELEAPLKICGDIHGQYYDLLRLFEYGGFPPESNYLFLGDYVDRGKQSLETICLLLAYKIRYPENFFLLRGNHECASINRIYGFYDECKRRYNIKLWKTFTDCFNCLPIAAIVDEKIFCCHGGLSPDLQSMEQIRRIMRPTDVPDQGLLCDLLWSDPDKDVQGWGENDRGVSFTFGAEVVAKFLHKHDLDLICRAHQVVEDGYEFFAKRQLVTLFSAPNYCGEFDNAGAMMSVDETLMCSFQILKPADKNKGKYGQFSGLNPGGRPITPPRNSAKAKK
# These are yes or no findings as the source states them, for the method shown. In cells and extracts the contact can be indirect. Some binding calls cover weakened binding; strength is not graded here. For some assays here: Sequences can lack the tags named with a protein.
# Tests used:
# [1] = target: T1, GST-Rif1 CRI+II (2090–2316) (mouse) (UniProt Q6PR54); test: pull-down; GST-Rif1 fragments on Glutathione Sepharose beads incubated overnight at 4 °C with E. coli crude lysate containing hexahistidine-tagged PP1; washed 4 times with 50 mM phosphate pH 7.4, 500 mM NaCl, 5 mM DTT; blot with anti-hexahistidine antibody; only the target purified
# T1 sequence: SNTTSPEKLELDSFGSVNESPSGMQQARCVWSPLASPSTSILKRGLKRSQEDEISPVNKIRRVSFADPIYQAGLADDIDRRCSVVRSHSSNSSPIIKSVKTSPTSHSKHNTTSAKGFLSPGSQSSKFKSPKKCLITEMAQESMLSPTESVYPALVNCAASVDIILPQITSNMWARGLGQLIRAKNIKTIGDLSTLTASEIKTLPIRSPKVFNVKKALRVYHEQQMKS
# [2] = target: T2, GST-Rif1 CRIII (2340–2418) (mouse) (UniProt Q6PR54); test: as above
# T2 sequence: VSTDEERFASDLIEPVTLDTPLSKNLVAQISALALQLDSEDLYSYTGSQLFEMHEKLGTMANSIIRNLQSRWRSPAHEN
# [3] = target: T3, GST-Rif1 CRII (2226–2340) (mouse) (UniProt Q6PR54); test: as above
# T3 sequence: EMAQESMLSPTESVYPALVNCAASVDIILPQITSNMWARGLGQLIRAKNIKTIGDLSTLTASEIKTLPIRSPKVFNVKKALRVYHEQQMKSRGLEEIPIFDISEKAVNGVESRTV
# [4] = target: T4, GST-Rif1 CRI+II+III (2093–2418) (mouse) (UniProt Q6PR54); test: as above
# T4 sequence: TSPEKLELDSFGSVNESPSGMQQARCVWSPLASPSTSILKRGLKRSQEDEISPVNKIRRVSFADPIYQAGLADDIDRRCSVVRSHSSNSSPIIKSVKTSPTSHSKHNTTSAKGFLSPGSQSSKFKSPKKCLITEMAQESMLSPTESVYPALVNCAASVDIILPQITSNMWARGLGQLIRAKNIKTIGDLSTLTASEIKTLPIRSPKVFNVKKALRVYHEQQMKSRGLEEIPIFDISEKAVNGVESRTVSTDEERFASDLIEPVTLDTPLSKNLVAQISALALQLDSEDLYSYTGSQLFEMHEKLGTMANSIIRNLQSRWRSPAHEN
# [5] = target: T5, GST-Rif1 CRII+III (2226–2418) (mouse) (UniProt Q6PR54); test: as above
# T5 sequence: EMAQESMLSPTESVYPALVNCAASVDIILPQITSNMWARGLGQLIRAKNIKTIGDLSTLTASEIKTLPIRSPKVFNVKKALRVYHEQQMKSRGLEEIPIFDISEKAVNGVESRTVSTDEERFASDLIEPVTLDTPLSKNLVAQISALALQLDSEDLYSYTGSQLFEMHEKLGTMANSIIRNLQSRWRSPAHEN
# [6] = target: T6, GST-Rif1 CRI (2093–2190) (mouse) (UniProt Q6PR54); test: as above
# T6 sequence: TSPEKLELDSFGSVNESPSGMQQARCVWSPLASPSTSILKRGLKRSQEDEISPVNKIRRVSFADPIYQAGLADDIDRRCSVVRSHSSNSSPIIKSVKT
# [7] = target: T7, GST-tagged Rif1 HEAT repeat region (residues 1–966) (mouse) (UniProt Q6PR54); test: as above
# T7 sequence: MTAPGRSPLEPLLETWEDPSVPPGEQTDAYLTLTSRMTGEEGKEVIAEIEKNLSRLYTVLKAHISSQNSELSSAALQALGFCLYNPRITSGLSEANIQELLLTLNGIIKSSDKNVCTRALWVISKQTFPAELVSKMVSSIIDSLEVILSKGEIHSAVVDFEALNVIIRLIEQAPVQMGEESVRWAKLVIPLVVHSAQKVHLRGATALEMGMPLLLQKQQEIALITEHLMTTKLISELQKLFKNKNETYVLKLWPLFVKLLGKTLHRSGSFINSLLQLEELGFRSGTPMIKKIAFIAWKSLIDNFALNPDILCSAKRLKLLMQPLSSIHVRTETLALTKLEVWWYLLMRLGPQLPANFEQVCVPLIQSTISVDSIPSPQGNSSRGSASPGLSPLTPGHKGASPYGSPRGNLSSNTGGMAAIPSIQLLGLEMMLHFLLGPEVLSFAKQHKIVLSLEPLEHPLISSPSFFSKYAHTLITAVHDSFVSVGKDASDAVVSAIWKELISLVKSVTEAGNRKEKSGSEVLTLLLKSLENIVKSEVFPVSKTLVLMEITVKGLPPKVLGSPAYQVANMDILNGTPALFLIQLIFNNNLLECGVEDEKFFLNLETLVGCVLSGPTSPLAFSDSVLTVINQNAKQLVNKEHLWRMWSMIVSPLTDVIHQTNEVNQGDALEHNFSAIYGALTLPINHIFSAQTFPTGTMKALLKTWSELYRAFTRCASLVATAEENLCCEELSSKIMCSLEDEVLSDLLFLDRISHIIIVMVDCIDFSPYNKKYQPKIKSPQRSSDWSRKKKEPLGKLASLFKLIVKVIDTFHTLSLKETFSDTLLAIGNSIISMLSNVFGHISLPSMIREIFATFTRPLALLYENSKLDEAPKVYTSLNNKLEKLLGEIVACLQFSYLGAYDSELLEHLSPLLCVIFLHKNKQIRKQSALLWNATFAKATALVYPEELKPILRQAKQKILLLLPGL
# [8] = target: Rif1^FLAG-HA2 (endogenous mouse Rif1 carrying a knock-in FLAG-HA2 tag) (mouse) (UniProt Q6PR54); test: co-IP; immunoprecipitation of Rif1-associated proteins from Rif1^FH/+ ESCs, immunoblotting with anti-PP1 antibody
substance,measurement,setting,value
"Recombinant hexahistidine-tagged PP1 (α-isoform, residues 1–330), in E. coli crude lysate (from UniProt P62136 1-330) (enzyme)",binding,[1],binds
same,binding,[2],no binding
same,binding,[3],no binding
same,binding,[4],binds
same,binding,[5],no binding
same,binding,[6],binds
same,binding,[7],no binding
Protein phosphatase 1 subunit A (endogenous) (from UniProt P62137 1-330) (enzyme),binding,[8],binds
